PubChem BioAssay AID1347073 (National Center for Advancing Translational Sciences (NCATS), 2019)
Out of some 45,000 compounds screened, about 200 (0.44%) were called active. Inconclusive results (about 7%) are left out. Calls come from the whole dose curve; as a rule, active = well fitted activation curve with a large enough effect; inconclusive = small, poorly fitted or top-dose-only effect; inactive = no such curve, though single readings can be large or run the other way. Some of the results follow.

Experiment: qHTS of TDP-43 Inhibitors: NCGC Sytravon Library Screen; note: 0% is about no effect; nearly all actives have a fitted effect of over 55% in size
Conditions: yeast TDP-43 toxicity rescue, BacTiter-Glo growth, 24 h; series mostly up to 46.1 µM; growth rescue (activation): at the top concentration
Method in brief: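 TDP-43-expressing yeast, pregrown in raffinose, seeded at OD600 0.02 in galactose medium with compound for 24 hr at 30 deg C. Growth read by BacTiter-Glo luminescence, so rescue of toxicity appears as activation.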

Row | SMILES | growth rescue (activation)
1 | CC(C(=O)NN=C(c1ccccc1)c1ccccc1)N1CCOCC1 (stereo not drawn) | inactive: 4.76%
2 | C=CCN1C(=O)c2cccc3c(N4CCCCC4)ccc(c23)C1=O | inactive: 1.21%
3 | COc1cccc(C(=O)NC(=O)Nc2cc(C)[nH]n2)c1 | inactive: 7.73%
4 | O=C(Cn1c(=O)oc2ccccc21)NC(=O)NCc1ccccc1 | inactive: 19.4%
5 | Cc1ccc(C)n1Cc1ccccc1Cl | inactive: 3.75%
6 | O=C(c1cccs1)N1CCCC(c2nc3c(nnn3Cc3ccccc3Cl)c(=O)[nH]2)C1 (stereo not drawn) | inactive: -21.7%
7 | C=CCN(C(=O)c1csnn1)C(C(=O)NCc1ccc(F)cc1)c1sccc1C (stereo not drawn) | inactive: 3.18%
8 | CCOc1ccccc1/C=N/NC(=O)c1cc(C(C)C)[nH]n1 | inactive: 6.23%
9 | COc1ccc(S(=O)(=O)N(C)c2ccc(C(=O)N3CCCCC3)cc2)cc1OC | inactive: 16%
10 | CC(C)NC(=O)c1ccc(-c2ccc(F)c(F)c2)c2ccoc12 | inactive: 12.5%
11 | CCc1nc2nc(C)c(NS(=O)(=O)c3ccc(F)cc3)c(=O)n2[nH]1 | inactive: 1.68%
12 | COc1cc(S(=O)(=O)NCCCN2CCOCC2)ccc1-n1cnnn1 | inactive: 8.99%
13 | COc1ccc(S(=O)(=O)N2CCN(C(=O)C3CCCCC3)CC2)cc1 | inactive: 13.5%
14 | OCCN1CCN(c2ncnc3c2ncn3[C@H]2CN(Cc3ccco3)C[C@@H](CO)O2)CC1 | inactive: 0.0696%
15 | CCN(CC)CCn1c(SCC(=O)NCCC2=CCCCC2)nc2c(sc3ccccc32)c1=O | inactive: 13.4%
16 | CCCCOC(=O)C1=C(C)NC2(O)c3ccccc3C(=O)C12O (stereo not drawn) | inactive: -7.57%
17 | COC(=O)CSc1ccc(-c2nc3ccc(C)cc3[nH]2)cn1 | inactive: 5.36%
18 | CCOC(=O)c1c(C)[nH]c(C(=O)COC(=O)c2ccc(O)cc2)c1C | inactive: 15.6%
19 | Cc1nn(-c2ccccc2)c(N2CCCC2)c1/C=N/NC(=O)c1cc2ccccc2cc1O | inactive: 23.4%
20 | CCN1CCCc2cc(CN(CCN3CCOCC3)C(=S)Nc3ccc(C)cc3)ccc21 | inactive: -7.57%
21 | CCOc1ccc(NC(=O)CC2Nc3ccccc3NC2=O)cc1 (stereo not drawn) | inactive: 14.8%
22 | CCNC(=O)C1(C)CCN1Cc1cc(-c2ccccc2)n(C)n1 (stereo not drawn) | inactive: -4.03%
23 | Cc1ccc(NC(=O)Cn2c(O)c(N=NC(N)=O)c3ccccc32)cc1 | inactive: 0.818%

Row | SMILES | growth rescue (activation)
24 | O=[N+]([O-])c1cc(S(=O)(=O)N2CCCCC2)ccc1NCc1cccc(Cl)c1 | inactive: 8.5%
25 | COc1cc(Cc2nccc3cc(OC)c(OC)cc23)c(S(=O)(=O)O)cc1OC | inactive: 4.59%
26 | O=C(CSc1nnc(-c2cccc(F)c2)o1)NC1CCCC1 | inactive: 6.6%
27 | CCC(C)NC(=O)CCc1nc2ccccc2n1-c1ccccc1 (stereo not drawn) | inactive: 9.83%
28 | CCCNC(=O)c1cc(C2CCCN(C(=O)C3CC3)C2)on1 (stereo not drawn) | inactive: -2.85%
29 | COc1ccc(CCN2C(=S)N(C)C(=O)C2CC(=O)Nc2ccc(OC)cc2)cc1 (stereo not drawn) | inactive: 18.1%
30 | O=C(NCc1ccccc1)C(c1ccco1)N(C(=O)c1csnn1)c1ccccc1F (stereo not drawn) | inactive: 13.1%
31 | Cc1ccc(CN2CCNC(=O)C2CC(=O)NCC(F)(F)F)o1 (stereo not drawn) | inactive: 15.8%
32 | O=C1CCC(C(=O)Nc2cccc3ccccc23)N1 (stereo not drawn) | inactive: 13.4%
33 | Cc1ccc(NC(=O)C2CCCCC2C(=O)O)cc1Cl (stereo not drawn) | inactive: 2.01%
34 | CCOc1ccccc1C(=O)NC(C(=O)N(C)c1c(N)n(Cc2ccccc2)c(=O)[nH]c1=O)C(C)C (stereo not drawn) | inactive: 23.1%
35 | O=C(N/C(=C/c1ccccc1)C(=O)N1CCCCCC1)c1ccccc1 | inactive: -1.51%
36 | Cn1ccsc1=NC(=O)c1ccc(CS(C)(=O)=O)cc1 | inactive: -6.07%
37 | O=C(CNC(=O)c1ccccc1F)Nc1ccccc1C(F)(F)F | inactive: 3.93%
38 | Cc1nc(NC(=O)c2ccc3c(c2)OCO3)ccc1Br | inactive: 14.5%
39 | O=C1[C@@H]2Cc3c([nH]c4ccccc34)C(c3ccccc3)N2C(=O)CN1C1CCN(Cc2ccccc2)CC1 (stereo partly drawn) | inactive: -15.3%
40 | O=C(COC(=O)c1cc(S(=O)(=O)N2CCOCC2)ccc1F)NC1CC1 | inactive: -9.39%
41 | Cc1ccc(C)c(Nc2nc(N)c3ccccc3n2)c1 | inactive: -16.2%
42 | CC(=O)N1CCN(C(=S)c2ccc(Cl)cc2)CC1 | inactive: 16.6%
43 | C/C(N)=C(/C#N)C(=O)COC(=O)c1ccc(OCC2CCCO2)cc1 (stereo not drawn) | inactive: 7.44%
44 | O=C(COc1ccc(Br)cc1)NC(=S)Nc1ccccc1N1CCOCC1 | inactive: 11.8%
45 | C=Cn1c(C(=O)O)ccc1-c1ccc(OC)cc1 | inactive: 22.1%
46 | O=C(Nc1ccccn1)c1cc2ccccc2cc1O | inactive: 11.5%

Row | SMILES | growth rescue (activation)
47 | O=C(Nc1nccs1)c1ccc2sc([C@H]3C[C@H](O)[C@@H](CO)O3)nc2c1 | inactive: 10.8%
48 | Fc1ccc(NC(=S)NCc2ccccn2)cc1 | inactive: 22.3%
49 | CC(C)C1Oc2ccccc2N(CC(=O)N(C)C2CCCCC2)C1=O (stereo not drawn) | inactive: -8.86%
50 | NS(=O)(=O)c1cccc(NC(=O)CSc2nnc(C3CC3)n2-c2ccccc2)c1 | inactive: 18.6%
51 | CC(=O)c1ccc(N2CCN(C(=O)CCC(=O)Nc3ccc4nc(N5CCN(C)CC5)cc(C)c4c3)CC2)cc1 | inactive: 14.6%
52 | CCOC(=O)c1sc(NC(=O)c2cccc(S(=O)(=O)N3c4ccccc4CC3C)c2)cc1C (stereo not drawn) | inactive: 12.5%
53 | CN(CC(=O)Nc1ccc(S(=O)(=O)N2CCCC2)cc1)Cc1ccc(Cl)cc1 | inactive: 6.81%
54 | CC(CCc1ccccc1)NC(=O)COC(=O)CC1CC2CCC1C2 (stereo not drawn) | inactive: 10.5%
55 | Cn1c(SCc2ccccc2C#N)nc2ccccc2c1=O | inactive: 15%
56 | Cc1ccc(C2=NC(=O)/C(=C/c3cc(O)c(O)c(Br)c3)S2)cc1 | inactive: 12.4%
57 | NS(=O)(=O)c1ccc(CNC(=O)CC23CC4CC(CC(C4)C2)C3)cc1 | inactive: 33.1%
58 | Cc1ccc(C2=Nc3ccccc3N=C(c3ccco3)C2)c(O)c1 | inactive: 11%
59 | N#CCCN(C(=O)Nc1ccc(Cl)c(Cl)c1)c1ccccc1 | inactive: 23.7%
60 | CC1CCCN(C(=O)COC(=O)COc2ccc(Cl)cc2)C1 (stereo not drawn) | inactive: -7.49%
61 | Cc1ccccc1-n1c(SCC(=O)c2c(N)n(C)c(=O)n(C)c2=O)nnc1-c1cccnc1 | inactive: 0.682%
62 | COC(=O)c1ccccc1NC(=O)CNC(=O)c1ccc(OC)cc1 | inactive: 5.19%
63 | CCCn1cc(CN2CCCC(CNC(=O)c3ccc(F)cc3)C2)c(C)n1 (stereo not drawn) | inactive: 10.9%
64 | CCc1ccc(/C(C)=N/NC(=O)CNC(=O)/C=C/c2ccccc2OC)cc1 | inactive: 21.8%
65 | Cc1c(NP(=O)(c2ccc(Br)cc2)c2ccc(Br)cc2)c(=O)n(-c2ccccc2)n1C | inactive: 15.6%
66 | C=CCn1c(N)c(C(=O)OC(C)(C)C)c2nc3ccccc3nc21 | inactive: 30.6%
67 | O=C1CC2c3ccccc3C1C1C(=O)N(CCO)C(=O)C21 (stereo not drawn) | inactive: -10.1%
68 | O=C(CN1C(=O)NC2(CCCCC2)C1=O)Nc1ccc2c(c1)CCC2 | inactive: 3.82%
